This is one part of the list.
B1: chr15:34983303:34983404:-|CDS|ENSG00000198146|msi1|total|mutant (ssRNA)
RNA: GGGAGUUCUACAGUCCGACGAUCGCUGAAAACAAUUUAAAAAUGCUAAAGAUUCAACAGUGUGUGGCCGCCAACAAACUACCCCGAAACAGGCCAUAUGUUUGCAAUAUUUGUUUUAAGCACUUUGAAACACCAUCAAAAUUACAACAGAGGAUUGAGCAUCA
B2: ENSG00000103429:stop:overlap|stop_codon|ENSG00000103429|stop_codon|NA|stop_codon (ssRNA)
RNA: GGGAGUUCUACAGUCCGACGAUCAACUGAAUGUGAACACAGCAGGUGUGAGAUGUCAUCUUGGAAGACAGGCCUUGCAGAAAUAGGCCUACAUCCAAAAUAUUAUCUUGUGACUCCAUGAACCAUUCAUUAACCCUUUGUAUCCAACAGAGGAUUGAGCAUCA
B3: chr7:82953248:82953350:-|CDS|ENSG00000186472|unk|FALSE|unique (ssRNA)
RNA: GGGAGUUCUACAGUCCGACGAUCAACAGAUAUACACCCCAAACCAACAGGCCUAUCUUUAACUUCAAGUAUGACCUUAAAUUUAGUGACUUCAGCAGAUUAUAAAUUGCCUUCCCCUACCUCCCCACUUUCCCCACACUCCAACAACAGAGGAUUGAGCAUCA
B4: ENSG00000079246:stop:overlap|stop_codon|ENSG00000079246|stop_codon|NA|stop_codon (ssRNA)
RNA: GGGAGUUCUACAGUCCGACGAUCGAGACACAGCAGCUGUAUUUGAAGAAGGUGGUGAUGUGGACGAUUUAUUGGACAUGAUAUAGGUCGUGGAUGUAUGGGGAAUCUAAGAGAGCUGCCAUCGCUGUGAUGCUGGGAGUUCUACAACAGAGGAUUGAGCAUCA
B5: chr1:45693489:45693605:+|CDS|ENSG00000159596|unk|total|mutant (ssRNA)
RNA: GGGAGUUCUACAGUCCGACGAUCAAUCCCCUUCGUUGCUCCACCACUGGUCAUGCUGAUGACAAAAACUUAUAUUCCCAUAUCCGCUUUUACUCAGAUGGCUUAUGGAGCCAGUUUCCUAUCUUUCUUGGGUGGGAUCAGAUGCAACAGAGGAUUGAGCAUCA
B6: chr10:72011937:72012038:+|3pUTR|ENSG00000122863|msi1|total|mutant (ssRNA)
RNA: GGGAGUUCUACAGUCCGACGAUCCAUACACCGCAGGUGGUCACCGAGUUAUUUUCCAAAAGCUGAGGAACAUAAAGCAAAUUCCGGCUUUUGUCCUUCUGCAAUACAUGCACUUGAAAAUAAACAGAAAAGAGAUGUUUAAUACAACAGAGGAUUGAGCAUCA
B7: chr8:86558718:86558819:+|3pUTR|ENSG00000085719|unk|total|mutant (ssRNA)
RNA: GGGAGUUCUACAGUCCGACGAUCCUGUUGUUGUUUUUGUUUACUUUCAUAUGAUGAAAAUGCUGUGUUUAAGUGUUUGUCAACCGGAAGAAUGGAAAACUGUUGGGAUGAUGUGGUUUGCAGGUUGCUGUGCCUGAUUCACAGCAACAGAGGAUUGAGCAUCA
B8: chr1:52911722:52912021:-|three_prime_utr|ENSG00000121310|control|control|control (ssRNA)
RNA: GGGAGUUCUACAGUCCGACGAUCGGUUGGGAAAAUUGAGGCCUGCCUGAGUGUGUGACUUGUGGCAAGUCACUCUGGUCAUCUAGGGCAGAGGCUCCCCAGAUCCCAGGCCUCCUGCCUCCAGUCCCCAGCCCGCAGCCCAGGCAACAGAGGAUUGAGCAUCA
B9: chr1:117368288:117368465:+|CDS|ENSG00000198162|unk|FALSE|unique (ssRNA)
RNA: GGGAGUUCUACAGUCCGACGAUCUUUUGGGGCAUUCUUUUUCCUUCCAGACUCUUCAAAACACAAACGCUUUGAUUUGGGUUUAGAAGAUGUGUUAAUUCCACAUGUAGAUGCCGGUAAAGGGGCUAAAAACCCCGGAGUCUUCAACAGAGGAUUGAGCAUCA
B10: chr15:41480918:41481019:+|3pUTR|ENSG00000137815|msi1|FALSE|unique (ssRNA)
RNA: GGGAGUUCUACAGUCCGACGAUCCCUCCCCCAGGGCCCCACCCAGUGUGGGCCUGGGCUCUCUUGGGCUUUAUCCAUGUCUUUAGAUUUGUGUUUGCCUUUUGUUUUUUUAACCGCGCAGUUCAUUGGCCACUCUGCACGCAUCAACAGAGGAUUGAGCAUCA
B11: chr10:30312946:30313047:-|3pUTR|ENSG00000107951|unk|FALSE|unique (ssRNA)
RNA: GGGAGUUCUACAGUCCGACGAUCUCUUAUUCACAUAUAAAUUAAAGUGGGUUGGUACUGAUAUCAAAAAAUGUUUAUGUUUUUAGAACAGACAUUUCAGUCACUGCAUUCUUAGGUAUUCCAAACCAAAUAUGAUGACAUCAACAACAGAGGAUUGAGCAUCA
B12: chr7:73478266:73478367:-|CDS|ENSG00000009954|unk|FALSE|unique (ssRNA)
RNA: GGGAGUUCUACAGUCCGACGAUCGAGUGGCUCGCCACUCAAAGUGAAGAACUCAAAGAAUUCCAAAUCUCCUGAAGAACAUCUAGAAGAAAUGAUGAAGAUGAUGUCGCCCAAUAAGCUGCACACUAACUUUCACAUUCCUAACAACAGAGGAUUGAGCAUCA
B13: chr10:71816509:71816622:-|3pUTR|ENSG00000197746|msi1_unk|FALSE|overlapping (ssRNA)
RNA: GGGAGUUCUACAGUCCGACGAUCUGCCUACAUGUCCCUGGCUGUUGAGGCGCUGCUUCAGCCUGCACCCCUCCCUUGUCUCAUAGAUGCUCCUUUUGACCUUUUCAAAUAAAUAUGGAUGGCGAGCUCCUAGGCCUCUGGCUUCAACAGAGGAUUGAGCAUCA
B14: ENSG00000136451:be:win_851|CDS|ENSG00000136451|bound_else_gene|NA|bound_elsewhere_windowed (ssRNA)
RNA: GGGAGUUCUACAGUCCGACGAUCAAGGCAAGGUAUCAUGUAACAUCUGUGGGAAGCUCCUGAGUGCAGCAUACAUCACCAGCCACUUAAAGACUCAUGGGCAGAGCCAAAGUAUCAACUGUAAUACAUGUAAACAAGGCAUCACAACAGAGGAUUGAGCAUCA

target: MSI1 full-length (mouse, UniProt Q61474 1-362); test: nsRBNS (natural sequence RNA bind-n-seq); RBNS binding buffer (assumed for nsRBNS): 25 mM Tris pH 7.5, 150 mM KCl, 3 mM MgCl2, 0.01% Triton X-100, 500 ug/ml BSA, 20 U/ml SUPERase-In, 4 C; UNK is unkempt and MSI1 is Musashi-1; names of the RNAs are library labels; protein concentration not given here; high values mean tight binding
UniProt Q61474, sequence (Q61474 whole entry): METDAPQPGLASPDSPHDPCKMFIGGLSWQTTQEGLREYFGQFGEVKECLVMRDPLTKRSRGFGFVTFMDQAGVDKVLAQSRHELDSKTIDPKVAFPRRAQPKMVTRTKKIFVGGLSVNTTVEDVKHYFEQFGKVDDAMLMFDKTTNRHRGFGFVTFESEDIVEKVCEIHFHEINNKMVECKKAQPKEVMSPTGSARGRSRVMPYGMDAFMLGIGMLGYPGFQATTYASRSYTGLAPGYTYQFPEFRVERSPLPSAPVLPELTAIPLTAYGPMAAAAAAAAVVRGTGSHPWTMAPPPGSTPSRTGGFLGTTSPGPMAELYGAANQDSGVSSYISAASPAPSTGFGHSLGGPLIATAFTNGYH

| Binder | binding signal |
| --- | --- |
| B1 | 0.274 enrichment R |
| B2 | 0.579 enrichment R |
| B3 | 2.9 enrichment R |
| B4 | 0.303 enrichment R |
| B5 | 0.439 enrichment R |
| B6 | 0.277 enrichment R |
| B7 | 0.342 enrichment R |
| B8 | 0.439 enrichment R |
| B9 | 0.251 enrichment R |
| B10 | 0.743 enrichment R |
| B11 | 1.59 enrichment R |
| B12 | 0.171 enrichment R |
| B13 | 0.548 enrichment R |
| B14 | 0.517 enrichment R |

Reference: article PMC12136788
